Reference: patent US20230125173A1 (HCW BIOLOGICS, published 2023)

Molecular target: T1, TGFβ Receptor II/IL-15RαSu fusion protein (human)
T1 construct: also called TGFβR/IL-15RαSu; TGFR/IL15RαSu
T1 chain: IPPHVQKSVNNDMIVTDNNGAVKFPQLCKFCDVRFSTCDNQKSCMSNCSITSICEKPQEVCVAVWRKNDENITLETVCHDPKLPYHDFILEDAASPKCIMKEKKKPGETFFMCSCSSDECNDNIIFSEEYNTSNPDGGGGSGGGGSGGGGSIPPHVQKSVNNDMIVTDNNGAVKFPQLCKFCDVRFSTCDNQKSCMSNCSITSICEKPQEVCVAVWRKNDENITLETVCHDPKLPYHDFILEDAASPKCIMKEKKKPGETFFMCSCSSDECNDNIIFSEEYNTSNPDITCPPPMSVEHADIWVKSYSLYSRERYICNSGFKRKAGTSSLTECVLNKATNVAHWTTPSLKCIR
Experiment: co-expression in CHO-K1 cells, complex formation
Excerpt: Co-expression of the two constructs in CHO-K1 cells allowed for formation and secretion of the soluble TGFβR/TF/IL-15:TGFβR/IL-15RαSu protein complex (referred to as TGFRt15-TGFRs), which can be purified by anti-TF IgG1 affinity and other chromatography methods.

binding result: binds
B1: TGFR/TF/IL15D8N fusion protein (other)
chain: IPPHVQKSVNNDMIVTDNNGAVKFPQLCKFCDVRFSTCDNQKSCMSNCSITSICEKPQEVCVAVWRKNDENITLETVCHDPKLPYHDFILEDAASPKCIMKEKKKPGETFFMCSCSSDECNDNIIFSEEYNTSNPDGGGGSGGGGSGGGGSIPPHVQKSVNNDMIVTDNNGAVKFPQLCKFCDVRFSTCDNQKSCMSNCSITSICEKPQEVCVAVWRKNDENITLETVCHDPKLPYHDFILEDAASPKCIMKEKKKPGETFFMCSCSSDECNDNIIFSEEYNTSNPDSGTTNTVAAYNLTWKSTNFKTILEWEPKPVNQVYTVQISTKSGDWKSKCFYTTDTECDLTDEIVKDVKQTYLARVFSYPAGNVESTGSAGEPLYENSPEFTPYLETNLGQPTIQSFEQVGTKVNVTVEDERTLVRRNNTFLSLRDVFGKDLIYTLYYWKSSSSGKKTAKTNTNEFLIDVDKGENYCFSVQAVIPSRTVNRKSTDSPVECMGQEKGEFRE[omitted - about 120 residues with changes]
notes: First chain of TGFRt15*-TGFRs; Residue limits counted from the printed signal peptide (17 residues)
